Reference: PubChem BioAssay AID504339 (National Center for Advancing Translational Sciences (NCATS), 2011)
About 17,000 (4.4%) of roughly 390,000 compounds were called active. Inconclusive results, whose numbers are uncertain, are shown with a selection of clear calls. Calls follow the shape of the dose curve; as a rule, active = well fitted inhibition curve with a large enough effect; inconclusive = small, poorly fitted or top-dose-only effect; inactive = no such curve, though single readings can be large or run the other way. Where the call is inconclusive, the potency comes from a doubtful curve fit.

Molecular target: Lysine-specific demethylase 4A (Homo sapiens) (UniProt O75164)
Assay: qHTS Assay for Inhibitors of JMJD2A-Tudor Domain; also: nearly all actives have a fitted effect of over 50% in size
Details: AlphaScreen JMJD2A-Tudor / H3K4me3 peptide binding; activity change, negative = inhibition: at 114 µM (top of the series)
% is scaled to controls: 0 for no effect and ±100 for the full control effect; potency is read from the fitted curve at half-maximal effect; tags tell the direction and shape of the fitted curve.

Sequence of UniProt O75164 (O75164 whole entry, looked up, the tested form may be a part): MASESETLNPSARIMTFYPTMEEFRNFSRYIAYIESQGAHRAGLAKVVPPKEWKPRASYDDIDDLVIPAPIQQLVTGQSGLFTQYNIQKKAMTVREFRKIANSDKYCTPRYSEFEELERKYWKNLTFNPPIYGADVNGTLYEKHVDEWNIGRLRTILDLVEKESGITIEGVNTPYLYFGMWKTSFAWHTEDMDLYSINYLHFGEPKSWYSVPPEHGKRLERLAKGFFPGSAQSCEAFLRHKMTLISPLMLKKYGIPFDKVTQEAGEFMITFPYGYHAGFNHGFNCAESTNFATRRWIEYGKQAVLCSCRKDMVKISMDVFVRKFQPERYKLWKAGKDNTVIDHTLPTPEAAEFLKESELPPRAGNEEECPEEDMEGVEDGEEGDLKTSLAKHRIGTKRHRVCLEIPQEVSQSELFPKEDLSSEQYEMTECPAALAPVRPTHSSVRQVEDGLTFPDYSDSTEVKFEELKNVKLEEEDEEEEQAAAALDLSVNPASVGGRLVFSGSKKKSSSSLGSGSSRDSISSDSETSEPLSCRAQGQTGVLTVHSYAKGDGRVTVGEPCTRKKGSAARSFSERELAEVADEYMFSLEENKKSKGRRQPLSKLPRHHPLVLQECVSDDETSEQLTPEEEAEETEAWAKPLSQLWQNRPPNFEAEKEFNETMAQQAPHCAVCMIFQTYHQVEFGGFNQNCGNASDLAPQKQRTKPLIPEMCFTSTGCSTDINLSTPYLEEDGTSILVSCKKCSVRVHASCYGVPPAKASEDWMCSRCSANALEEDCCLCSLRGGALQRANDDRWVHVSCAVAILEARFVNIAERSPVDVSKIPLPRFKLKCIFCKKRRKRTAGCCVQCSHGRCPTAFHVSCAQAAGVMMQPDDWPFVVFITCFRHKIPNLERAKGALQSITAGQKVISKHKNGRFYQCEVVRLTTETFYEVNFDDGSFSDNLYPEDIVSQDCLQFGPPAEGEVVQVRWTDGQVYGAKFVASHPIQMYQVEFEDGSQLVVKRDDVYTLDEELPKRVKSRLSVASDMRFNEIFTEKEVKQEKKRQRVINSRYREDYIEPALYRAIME

Potency, inconclusive:
COc1ccc(S(=O)(=O)c2c(Nc3c(C)cccc3C)sc(C(=O)c3ccc(F)cc3)c2N)cc1 44.7 µM [inhibitor, partial curve], CCc1cccc(C)c1Nc1c(-c2ccc(SC)cc2)nc2sccn12 25.1 µM [inhibitor, full curve], Cc1ccc(C)c(OCCC(=O)OCC(=O)Nc2cc(S(=O)(=O)N3CCOCC3)ccc2C)c1 31.6 µM [inhibitor, partial curve], COc1cc(/C=C(/C#N)C(=O)c2c(C)[nH]c3ccccc23)ccc1OCC#N 39.8 µM [inhibitor, partial curve], Cc1c(Cl)cnc(NC(=O)COC(=O)C(NC(=O)c2ccco2)C(C)C)c1Cl (stereo unspecified) 63.1 µM [inhibitor, partial curve], Cn1cccc1/C=N/NC(=O)Cc1cccc2ccccc12 44.7 µM [inhibitor, partial curve], CCn1nc(CC(C)C)cc1C(=O)N1CCCC(Nc2ccc(OC)cc2)C1 (stereo unspecified) 22.4 µM [inhibitor, full curve], O=C(OCc1cc(=O)n2nc(-c3cccs3)sc2n1)c1cccc(F)c1 56.2 µM [inhibitor, partial curve], Cc1ccc(S(=O)(=O)Nc2ccc3c(c2)C(=O)N([C@H](C)CO)C[C@H](C)[C@@H](CN(C)Cc2ccc(-c4ccccc4)cc2)O3)cc1 22.4 µM [inhibitor, full curve], Cc1cccc(C(C)C)c1NC(=O)COC(=O)C1CC(=O)N(Cc2ccccc2)C1 (stereo unspecified) 0.316 µM [inhibitor, full curve], CC1(C)NC(=O)N(CC(=O)OCC(=O)c2ccc(Br)s2)C1=O 20 µM [inhibitor, full curve], N#CC1C(=O)c2ccccc2C1c1ccccc1 (stereo unspecified) 56.2 µM [inhibitor, partial curve], C=CCn1c(=O)c2c(nc(-c3ccc(S(=O)(=O)O)cc3)n2C)n(C)c1=O 89.1 µM [inhibitor, single point], O=C(NCCCN1CCOCC1)c1cc2c([nH]c3ccccc32)c(-c2cccc(Br)c2)n1 50.1 µM [inhibitor, partial curve], Cc1cccc[n+]1C1C(c2ccccc2)C(C#N)=C(C(=C=[N-])C#N)NC1(O)C1CC1 (stereo unspecified) 70.8 µM [inhibitor, partial curve], C/C=C/C=C\C(=O)Nc1cccc(C2=NOC3(C2)C[C@@H](C(N)=O)N(C(=O)/C(C)=C/C)C3)c1 (stereo partly specified) 31.6 µM [inhibitor, single point], COC(=O)c1c(C)n(-c2ccccc2)c2ccc(O)cc12 22.4 µM [inhibitor, full curve], CCn1ccnc1CN1CCc2c([nH]c3ccccc23)C1CC(C)C (stereo unspecified) 50.1 µM [inhibitor, partial curve], COc1cc(Nc2ncc3c(n2)CCN(Cc2ccc(OC(C)C)c(OC)c2)C3)cc(OC)c1 31.6 µM [inhibitor, partial curve], Cc1nn(-c2cccc(Cl)c2)c2c1C(c1cccnc1)C(C#N)=C(N)O2 (stereo unspecified) 56.2 µM [inhibitor, partial curve], CN(C)c1ccc(C(C(=O)NCC2CCCO2)N(C(=O)c2snc(C(N)=O)c2N)c2ccc3c(c2)OCO3)cc1 (stereo unspecified) 50.1 µM [inhibitor, partial curve], Clc1ccc2c(c1)C1=C(C(c3ccncc3)O2)C(c2ccc(Br)cc2)n2ncnc2N1 (stereo unspecified) 25.1 µM [inhibitor, full curve, poor fit], COc1cccc(NC(=O)CSc2ccc3nnc(-c4ccccn4)n3n2)c1 50.1 µM [inhibitor, partial curve], COc1ccc(N2CCN(C(=O)CCC(=O)N3CCOc4ccc(Cl)cc43)CC2)cc1 22.4 µM [inhibitor, full curve], CC(CP(=O)(O)O)NC(=O)Cc1ccccc1 (stereo unspecified) 100 µM [inhibitor, partial curve, poor fit], COc1ccc(-c2cnn(-c3ccccc3)c2N)cc1OC 79.4 µM [inhibitor, single point], CC(C)CC(=O)NC1(C(F)(F)F)C(=O)Nc2c1c(=O)[nH]c(=O)n2Cc1ccco1 (stereo unspecified) 89.1 µM [inhibitor, single point], O=C(O)CCCC(=O)Nc1ccc(N2CCCC2)cc1 89.1 µM [inhibitor, single point], Cc1ccc(CN2CCCn3nc(C(=O)NCc4ccc(N(C)C)cc4)cc3C2=O)cc1 50.1 µM [inhibitor, partial curve], CCCCNC(=O)Cc1coc2ccc3ccccc3c12 89.1 µM [inhibitor, partial curve], CC/C(=C\C(=O)c1ccncc1)Nc1ccc(Br)cc1 50.1 µM [inhibitor, partial curve], O=c1oc2ccccc2c(NCc2ccc(Cl)cc2)c1[N+](=O)[O-] 44.7 µM [inhibitor, partial curve], CCOc1ccccc1NC(C)C(=O)NC(=O)NC1CCCCC1 (stereo unspecified) 50.1 µM [inhibitor, partial curve], CSc1nsc(NC(=O)CCNC(=O)c2ccc([N+](=O)[O-])cc2)n1 39.8 µM [inhibitor, single point], Cc1ccc(-c2c3c(=O)n(C)c(=O)n(C)c3cn2Cc2ccccc2)cc1 35.5 µM [inhibitor, full curve], O=C(c1ccc(CS(=O)Cc2ccc(Cl)cc2)o1)N1CCN(c2cccc(Cl)c2)CC1 (stereo unspecified) 44.7 µM [inhibitor, partial curve], Cc1n(-c2ccccc2)c2ccc(Cl)cc2[n+]1CCO 31.6 µM [inhibitor, partial curve], COc1ccc2[nH]c3c(c2c1)CCN1C(=O)C(CC(=O)NC/C=C(\C)CCC=C(C)C)C[C@H](C(=O)N(C(C)C)C(C)C)[C@@]31C (stereo partly specified) 28.2 µM [inhibitor, partial curve], [O-]C(=C(C(=S)Nc1cccc2ccccc12)[n+]1ccccc1)c1ccc2c(c1)OCCO2 56.2 µM [inhibitor, partial curve], Cc1ccc(NC(=O)CNc2ccccc2CN(C)C2CCCCC2)cc1 44.7 µM [inhibitor, partial curve]

Potency, inactive:
Cn1c(NC(=O)c2ccc(F)cc2)c(-c2ccccn2)c(=O)c2ccccc21, COc1ccc(CC(=O)NCCS(=O)(=O)N2CCN(c3ccccc3F)CC2)cc1OC, NC(=S)NC1CC2C=CC1C2 (stereo unspecified), O=C(CSc1ccc2nnc(-c3cccnc3)n2n1)NCc1ccco1, N#CC1=C(N)Oc2n[nH]c(-c3ccc(F)cc3)c2C1c1cccnc1 (stereo unspecified), COC(=O)c1ccc(/C=N/NC(=O)CNc2cccc(C)c2)cc1, O=c1c([N+](=O)[O-])c(O)c2ccccc2n1Cc1ccccc1, CC(C)c1ccc(N(CCc2ccccn2)C(=O)C(C)(C)C)cc1, O=C(c1cc2ccc3cccnc3c2[nH]1)N1CCCCC1, O=C(CCN1N=C(c2ccccc2)CCC1=O)NCCCN1CCOCC1, COc1ccc(NC(=O)C2CCN(C3=NS(=O)(=O)C(c4ccc(C)c(C)c4)=C3C)CC2)c(OC)c1, O=C(NCc1ncc(C(F)(F)F)cc1Cl)Nc1ccccc1, CSc1nsc(SCC(=O)NCc2ccc(C)cc2)n1, FC(F)(F)c1ccccc1NC(=S)N1CCCCCC1, CN(C)c1cccc2c1c(NC(=O)Nc1ccc(Cl)cc1Cl)nn2C, CCC(=O)N1CCc2cc(S(=O)(=O)NCCC(=O)Nc3ccc(CC)cc3)ccc21, Clc1ccc(SCCOCCN2CCc3ccccc3C2)cc1, CCOC(=O)Cc1ccc(NC(=O)N(Cc2ccc(OC)cc2)C2CCN(C(C)=O)CC2)cc1, O=C(NCc1ccco1)c1ccc(-c2ccccc2Cl)o1

Potency, active:
O=C(O)CCCN1C(=O)/C(=C/c2cn(-c3ccccc3)nc2-c2cccs2)SC1=S 14.1 µM, Oc1ccc(Cn2ccnc2)c2cccnc12 2 µM, CCC(C)CCCCCCCCCCC(=O)O (stereo unspecified) 50.1 µM, COc1ccc2nc(NNC(=O)c3cc(=O)c4ccccc4o3)sc2c1 56.2 µM, Cc1ccc(NC(=O)N2CC3CCCN3c3ccccc32)cc1Cl (stereo unspecified) 39.8 µM, COC1(C)CC2C(CC1OC(=O)c1cc([N+](=O)[O-])cc([N+](=O)[O-])c1)C2(C)C (stereo unspecified) 25.1 µM, CN(C=[N+](C)C)c1cccc2c1C(=O)c1ccccc1C2=O 44.7 µM, CCCCN(C(=O)c1cccc(-n2cccc2)c1)c1c(N)n(CCC)c(=O)[nH]c1=O 14.1 µM, O=C(Nc1ccc2c(c1)OCCO2)c1cccnc1 89.1 µM, CC(=O)Nc1ccc(S(=O)(=O)NCc2ccccn2)cc1 5.01 µM

Activity change, negative = inhibition, inconclusive:
CCc1cc(/C(Cc2ccccn2)=N\Nc2ccccc2)c(O)cc1O -73.2% [inhibitor]

Activity change, negative = inhibition, inactive:
Cc1ccc(-c2cc3c(nn2)-c2ccccc2C3=O)cc1 -16.9% [at 11.4 µM]
